Among the data in paper PMC7819943, “Rice protein-binding microarrays: a tool to detect cis-acting elements near promoter regions in rice” are binding signal values, retold here.

This is one part of the list.

This assay addresses T1, OsWOX13 (Oryza sativa, UniProt Q5QMM3 1-267).
T1 sequence: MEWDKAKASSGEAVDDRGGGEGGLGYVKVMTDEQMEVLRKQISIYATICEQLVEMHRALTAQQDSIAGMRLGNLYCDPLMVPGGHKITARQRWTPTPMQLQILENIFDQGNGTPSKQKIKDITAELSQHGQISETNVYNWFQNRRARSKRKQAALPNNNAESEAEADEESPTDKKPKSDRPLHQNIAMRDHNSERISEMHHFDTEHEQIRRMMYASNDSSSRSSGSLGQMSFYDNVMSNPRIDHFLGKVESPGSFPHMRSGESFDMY
As to the kind of experiment: protein-binding microarray (RPBM); PBS, 2% BSA, 51.3 ng/ul salmon testes DNA, 50 uM zinc acetate, 200 nM TF, 25 C, 1 h; high values mean tight binding. The note with it: protein: recombinant; tags: N-terminal polyhistidine and DsRed monomer fusion (pET32a); label: CyDye5-dUTP incorporated in the synthesized complementary strand; 3' TTTTT single-stranded linker to array surface; dsDNA, one strand shown. In short, it runs like this: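 Transcription factors were each fused at the N-terminus to a polyhistidine tag plus DsRed and expressed in E. coli BL21-CodonPlus before Ni–NTA purification. Binding to a double-stranded custom Agilent array was carried out with 200 nM protein at 25 °C for 1 h in PBS, 2% BSA, salmon testes DNA and 50 µM zinc acetate. The binding signal is per-feature fluorescence intensity, in arbitrary units, on an Axon 4000B scanner.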
For the sequence “GATTCAGTTTAATATATACTAATTGCACAAAACTGAATAACGGAGTCACCTAGTGCAG”, the binding signal was 9520 fluorescence intensity (a.u.). “GTTAATAACCGATTTTGCCATTGAGTGATGAGATTCGAGCCGGAGTCACCTAGTGCAG”: the binding signal was 3840 fluorescence intensity (a.u.). Take “CAAGAATTGATTGCTTCTGTACTTCACATAGACTAATGTTCGGAGTCACCTAGTGCAG”: the binding signal is 40500 fluorescence intensity (a.u.). For “CAAACAAGCCAGCTCAATCAATCATCGAGCTAGCTGAGCTCGGAGTCACCTAGTGCAG” the value was 8080 fluorescence intensity (a.u.); for “AACCATGTTAATTAACAGAGGTTATCTAATCATCTAACAACGGAGTCACCTAGTGCAG”, 12800 fluorescence intensity (a.u.); for “CCAAACTGGAAAATTACGGCTCGCAGTATTCGCTTAGGCCCGGAGTCACCTAGTGCAG”, 25500 fluorescence intensity (a.u.). For “AATACTTTGCACATCAATTCAATCAACTAGCCTACATAAACGGAGTCACCTAGTGCAG” the value was 4860 fluorescence intensity (a.u.); for “CCATGGAAATTGAAGGGAAACATTCTTAACTATGGACTTGCGGAGTCACCTAGTGCAG”, 3760 fluorescence intensity (a.u.); for “TTTGATTGGTAAACCGCTTCTACTCACAAGTCACGTAAAGCGGAGTCACCTAGTGCAG”, 44800 fluorescence intensity (a.u.).

As for “ATACGCTAATTGTTTGAAATTCGTCTCAAGATGTATCGGGCGGAGTCACCTAGTGCAG”, the binding signal was 30600 fluorescence intensity (a.u.). Take “CATCAATCAGTTATCTTGTAGCTAGCTACCTGATCGAACTCGGAGTCACCTAGTGCAG”: the binding signal is 24200 fluorescence intensity (a.u.). Turning to “AAAATTGACTATAAATGATTTGGAGCCGGTAGTTGGCTATCGGAGTCACCTAGTGCAG”, the binding signal was 51700 fluorescence intensity (a.u.). The same measure for “TGTAACTGAAATGTCAATTTATCGATGTGAATGTCCCGTCCGGAGTCACCTAGTGCAG”: 39200 fluorescence intensity (a.u.); for “CTGTACATCAATCTGTGCGTGATTGAAATCCTGGACGATCCGGAGTCACCTAGTGCAG”: 45600 fluorescence intensity (a.u.). For “CAATAATGATGGGGTGGTGGAGATGGTGGTGGGTTTGGTCCGGAGTCACCTAGTGCAG” the value was 9680 fluorescence intensity (a.u.); for “CATATTGACAGCTTTGTAATTGCATTTGACAGGTTCAACCCGGAGTCACCTAGTGCAG”, 60500 fluorescence intensity (a.u.); for “AAATAAAATAAAATTATTTGGGTTAAAATGATAGAGGTGGCGGAGTCACCTAGTGCAG”, 3300 fluorescence intensity (a.u.). “ACAAATTACATAATTCGCCTGTAAAATGTGAGACAAATTTCGGAGTCACCTAGTGCAG”: the binding signal was 10400 fluorescence intensity (a.u.).

Regarding “CTAGCTAATCAGTGACCCTTATCGGCTCATCCACTCACAACGGAGTCACCTAGTGCAG”, the binding signal was 6590 fluorescence intensity (a.u.).

Turning to “AGGAAGTATACGCCAATCATTTGATTCTTCCCCACCTAATCGGAGTCACCTAGTGCAG”, the binding signal is 3180 fluorescence intensity (a.u.). For “AGGTTGATTTACTCATCTGTGAAGATTGATTAGTTGCAACCGGAGTCACCTAGTGCAG” the value was 42000 fluorescence intensity (a.u.); for “TCCAATCCCCGTTAATATTAATTTTACAAACGGTAGTCCACGGAGTCACCTAGTGCAG”, 8140 fluorescence intensity (a.u.). For “GTGATATACCTTTCAATTAGCAGGCCAAGTAACAGGGAAACGGAGTCACCTAGTGCAG” the value was 7320 fluorescence intensity (a.u.). For “TGGTCCTGATTTATTTGGTACAAACATACTTCTACGTTACCGGAGTCACCTAGTGCAG” the value was 4650 fluorescence intensity (a.u.); for “TGTGATAGAAAGTTAGAAGTTAAGGGAAGTTTGGTGTGAACGGAGTCACCTAGTGCAG”, 7240 fluorescence intensity (a.u.); for “GGGATTGAGAGAAAATAATTCCGTACGATAATAGGCATGACGGAGTCACCTAGTGCAG”, 16000 fluorescence intensity (a.u.). Consider “TCGATCAATCAGGCCATAGCTTAGCCCATTGGCACGAACTCGGAGTCACCTAGTGCAG”, for which the binding signal is 10700 fluorescence intensity (a.u.). As to “GATTAATTAGCCAATGAGAAGAGCCAAAATAGTACACATCCGGAGTCACCTAGTGCAG”, the binding signal is 23400 fluorescence intensity (a.u.).

“CCTAAGTGACAGGATCAGGTCAAACCGTGATGGCACGCCACGGAGTCACCTAGTGCAG”: the binding signal was 6720 fluorescence intensity (a.u.). Consider “ACCAATCAAGCGGAAAGAGATAATCAGGGGTGAGGAGATTCGGAGTCACCTAGTGCAG”, for which the binding signal was 5170 fluorescence intensity (a.u.). For “ATACTAATCTCGTGAAATTTCACGTTCTCGCTGTCACAAACGGAGTCACCTAGTGCAG” the value was 4590 fluorescence intensity (a.u.). The same measure for “CCTGATATATCTGTTTTCGACAGCCCATTACTGTTTCTTGCGGAGTCACCTAGTGCAG”: 3940 fluorescence intensity (a.u.); for “AGGCAATTAACTATGACCACTTCTTCAATAAATTATTACTCGGAGTCACCTAGTGCAG”: 8960 fluorescence intensity (a.u.); for “TATGTGATTATCTTCTCCATACCATCATGTTCTAGATACGCGGAGTCACCTAGTGCAG”: 24900 fluorescence intensity (a.u.). For “TGTGAGATTGAGGACGAATTGAAGCCTAGCTTGTGACGCACGGAGTCACCTAGTGCAG” the value was 17800 fluorescence intensity (a.u.). As to “CATGATGAATTGCTGCGTATTGCCTTGCTAATGCCTGGTTCGGAGTCACCTAGTGCAG”, the binding signal was 14900 fluorescence intensity (a.u.). For “ACTTAACGTGATGGAATGGCATCCATAATATTCGTCCACCCGGAGTCACCTAGTGCAG” the value was 16500 fluorescence intensity (a.u.); for “CGCTCCCGTCTCCGATAATCAATGGCTGATCAGCCTCCGCCGGAGTCACCTAGTGCAG”, 3480 fluorescence intensity (a.u.); for “TGCAAATTTAGGCTGATACTGTCTAATATGCTATGCATTTCGGAGTCACCTAGTGCAG”, 4200 fluorescence intensity (a.u.). For “TGTTAACTCTTCAATCTGTATCACAGCATGTCATCTTCGGCGGAGTCACCTAGTGCAG” the value was 9370 fluorescence intensity (a.u.); for “GCATGATTACCCTTAGACTTCCTTTCCTATTATATAAAGCCGGAGTCACCTAGTGCAG”, 24200 fluorescence intensity (a.u.). The same measure for “GTAAATTGCCATCAGAAACAAGTATTTCAGACGCAATACGCGGAGTCACCTAGTGCAG”: 17300 fluorescence intensity (a.u.).
